According to PMC11149917, “Translational and Therapeutic Evaluation of RAS-GTP Inhibition by RMC-6236 in RAS-Driven Cancers” (Cancer Discovery, 2024):
The source gives many values for each of these; only a part stands here.

System: PRISM panel of 845 cancer cell lines
Experiment: PRISM assay
Type: cell-based, human
Experimental: The PRISM cell set comprised 845 cell lines representing more than 45 lineages (see Supplementary Table S1 for cell line information), which largely overlapped with the Cancer Cell Line Encyclopedia; https://portals.broadinstitute.org/ccle). Cell lines were grown in RPMI without phenol red and supplemented with 10% or 20% FBS for adherent and suspended lines, respectively. Parental cell lines were stably infected with a unique 24-nucleotide DNA barcode via lentiviral transduction and blasticidin selection. After selection, barcoded cell lines were expanded and subjected to quality control (Mycoplasma contamination test, an SNP test for confirming cell line identity, and barcode ID confirmation). Approved cell lines were then pooled (20–25 cell lines per pool) based on doubling time similarity and frozen in assay-ready vials.
RMC-6236 was added to 384-well plates at 8-point concentration with 3-fold dilutions in triplicate. These assay-ready plates were then seeded with the thawed cell line pools. Adherent cell pools were plated at 1,250 cells per well, whereas suspension and mixed adherent/suspension pools were plated at 2,000 cells per well. Treated cells were incubated for 5 days, and then lysed. Lysate plates were collapsed together prior to barcode amplification and detection.
Each cell line's unique barcode is located in the 3′UTR of the blasticidin-resistance gene and therefore is expressed as mRNA. Total mRNA was captured using magnetic particles that recognize polyA sequences. Captured mRNA was reverse-transcribed into cDNA and then the sequence containing the unique PRISM barcode was amplified using PCR. Finally, Luminex beads that recognize the specific barcode sequences in the cell set were hybridized to the PCR products and detected using a Luminex scanner which reports the signal as a median fluorescent intensity (MFI).
• Each detection well contained 10 control barcodes in increasing abundances as spike-in controls. For each plate, we first create a reference profile by calculating the median of the log2(MFI) values across negative control wells for each of these spiked-in barcodes. • For each well, a monotonic smooth p-spline was fitted to map the spike-in control levels to the reference profile. Next, we transform the log2(MFI) for each cell barcode using the fitted spline to allow well-to-well comparisons by correcting for amplification and detection artifacts. • Next, the separability between negative and positive control treatments was assessed. In particular, we calculated the error rate of the optimum simple threshold classifier between the control samples for each cell line and plate combination. The error rate is a measure of the overlap of the two control sets and was defined as error = (FP + FN)/n, where FP is false positives, FN is false negatives, and n is the total number of controls. A threshold was set between the distributions of positive and negative control log2(MFI) values (with everything below the threshold said to be positive and above said to be negative) such that this value is minimized. Additionally, we also calculated the dynamic range of each cell line. […] Additionally, any cell line that had less than 2 passing replicates was also omitted for the sake of reproducibility. Finally, we computed viability by normalizing with respect to the median negative control for each plate.
For every gene with nonsilent mutations in at least four cell lines, we compared the AUC values between cells with and without those mutations using a t test. This analysis was carried out for (i) the full data set; (ii) excluding cell lines with nonsilent KRAS mutations; and (iii) excluding cell lines that have either KRAS or NRAS nonsilent mutations.

CCn1c(-c2cc(N3CCN(C)CC3)cnc2[C@H](C)OC)c2c3cc(ccc31)-c1csc(n1)C[C@H](NC(=O)[C@H]1C[C@@H]1C)C(=O)N1CCC[C@H](N1)C(=O)OCC(C)(C)C2 [RMC-6236]
RMC-6236: RevMed PRISM: AUC (42MGBA_CENTRAL_NERVOUS_SYSTEM): 0.8573
RMC-6236: RevMed PRISM: AUC (94T778_SOFT_TISSUE): 0.7475
RMC-6236: RevMed PRISM: AUC (95T1000_SOFT_TISSUE): 0.6212
RMC-6236: RevMed PRISM: AUC (253JBV_URINARY_TRACT): 0.8447
RMC-6236: RevMed PRISM: AUC (253J_URINARY_TRACT): 0.7913
RMC-6236: RevMed PRISM: AUC (647V_URINARY_TRACT): 0.7963
RMC-6236: RevMed PRISM: AUC (769P_KIDNEY): 0.8509
RMC-6236: RevMed PRISM: AUC (786O_KIDNEY): 1
RMC-6236: RevMed PRISM: AUC (921_UVEA): 0.7183
RMC-6236: RevMed PRISM: AUC (1618K_TESTIS): 0.8085
RMC-6236: RevMed PRISM: AUC (1777NRPMET_TESTIS): 0.8797
RMC-6236: RevMed PRISM: AUC (8305C_THYROID): 0.7818
RMC-6236: RevMed PRISM: AUC (9505BIK_PANCREAS, KRAS p.G12V): 0.2025
RMC-6236: RevMed PRISM: AUC (A3KAW_HAEMATOPOIETIC_AND_LYMPHOID_TISSUE): 0.5106
RMC-6236: RevMed PRISM: AUC (A101D_SKIN): 0.886
RMC-6236: RevMed PRISM: AUC (A172_CENTRAL_NERVOUS_SYSTEM): 1
RMC-6236: RevMed PRISM: AUC (A204_SOFT_TISSUE): 0.7672
RMC-6236: RevMed PRISM: AUC (A253_SALIVARY_GLAND): 0.4481
RMC-6236: RevMed PRISM: AUC (A375_SKIN): 0.833
RMC-6236: RevMed PRISM: AUC (A498_KIDNEY): 0.6835
RMC-6236: RevMed PRISM: AUC (A549_LUNG, KRAS p.G12S): 0.588
RMC-6236: RevMed PRISM: AUC (A673_BONE): 0.9942
RMC-6236: RevMed PRISM: AUC (A2780_OVARY): 0.7354
RMC-6236: RevMed PRISM: AUC (ACHN_KIDNEY): 0.5715
RMC-6236: RevMed PRISM: AUC (AM38_CENTRAL_NERVOUS_SYSTEM): 1
RMC-6236: RevMed PRISM: AUC (AMO1_HAEMATOPOIETIC_AND_LYMPHOID_TISSUE, KRAS p.A146T): 0.879
RMC-6236: RevMed PRISM: AUC (ANGMCSS_CENTRAL_NERVOUS_SYSTEM): 0.8471
RMC-6236: RevMed PRISM: AUC (ASPC1_PANCREAS, KRAS p.G12D): 0.4632
RMC-6236: RevMed PRISM: AUC (AU565_BREAST): 0.906
RMC-6236: RevMed PRISM: AUC (BCPAP_THYROID): 0.8571
RMC-6236: RevMed PRISM: AUC (BEN_LUNG): 0.8571
RMC-6236: RevMed PRISM: AUC (BFTC905_URINARY_TRACT, NRAS p.Q61L): 0.6287
RMC-6236: RevMed PRISM: AUC (BFTC909_KIDNEY): 0.8461
RMC-6236: RevMed PRISM: AUC (BHT101_THYROID): 0.8444
RMC-6236: RevMed PRISM: AUC (BICR6_UPPER_AERODIGESTIVE_TRACT): 0.626
RMC-6236: RevMed PRISM: AUC (BICR31_UPPER_AERODIGESTIVE_TRACT): 0.6956
RMC-6236: RevMed PRISM: AUC (BICR78_UPPER_AERODIGESTIVE_TRACT): 0.4863
RMC-6236: RevMed PRISM: AUC (BOKU_CERVIX): 0.7111
RMC-6236: RevMed PRISM: AUC (BT474_BREAST): 0.8139
RMC-6236: RevMed PRISM: AUC (BXPC3_PANCREAS): 0.996
RMC-6236: RevMed PRISM: AUC (C4I_CERVIX): 0.7241
RMC-6236: RevMed PRISM: AUC (C80_LARGE_INTESTINE, KRAS p.A146V): 0.5069
RMC-6236: RevMed PRISM: AUC (CAKI1_KIDNEY): 0.8381
RMC-6236: RevMed PRISM: AUC (CAL12T_LUNG): 0.7366
RMC-6236: RevMed PRISM: AUC (CAL27_UPPER_AERODIGESTIVE_TRACT, NRAS p.D92N, p.R68T): 0.5492
RMC-6236: RevMed PRISM: AUC (CAL29_URINARY_TRACT): 0.5384
RMC-6236: RevMed PRISM: AUC (CAL51_BREAST): 0.7042
RMC-6236: RevMed PRISM: AUC (CAL78_BONE): 0.9476
RMC-6236: RevMed PRISM: AUC (CAL148_BREAST): 1
RMC-6236: RevMed PRISM: AUC (CALU1_LUNG, KRAS p.G12C): 0.5763
RMC-6236: RevMed PRISM: AUC (CALU6_LUNG, KRAS p.Q61K): 0.6273
RMC-6236: RevMed PRISM: AUC (CAMA1_BREAST): 1
RMC-6236: RevMed PRISM: AUC (CAOV3_OVARY): 0.7429
RMC-6236: RevMed PRISM: AUC (CAPAN2_PANCREAS, KRAS p.G12V): 0.3858
RMC-6236: RevMed PRISM: AUC (CCK81_LARGE_INTESTINE): 0.8465
RMC-6236: RevMed PRISM: AUC (CCSW1_BILIARY_TRACT): 0.6208
RMC-6236: RevMed PRISM: AUC (CFPAC1_PANCREAS, KRAS p.G12V): 0.4566
RMC-6236: RevMed PRISM: AUC (CH157MN_CENTRAL_NERVOUS_SYSTEM, NRAS p.Q61K): 0.6203
RMC-6236: RevMed PRISM: AUC (CHAGOK1_LUNG): 0.5647
RMC-6236: RevMed PRISM: AUC (CHLA10_BONE): 0.99
RMC-6236: RevMed PRISM: AUC (CHLA57_BONE): 0.99
RMC-6236: RevMed PRISM: AUC (CJM_SKIN, HRAS p.Q61L): 0.5971
RMC-6236: RevMed PRISM: AUC (CL11_LARGE_INTESTINE, KRAS p.Q61H, p.V14I): 0.5015
RMC-6236: RevMed PRISM: AUC (COGAR359_SOFT_TISSUE): 0.99
RMC-6236: RevMed PRISM: AUC (COGE352_BONE): 0.8348
RMC-6236: RevMed PRISM: AUC (COLO320_LARGE_INTESTINE): 0.6699
RMC-6236: RevMed PRISM: AUC (COLO680N_OESOPHAGUS): 0.7369
RMC-6236: RevMed PRISM: AUC (COLO741_SKIN): 1
RMC-6236: RevMed PRISM: AUC (COLO783_SKIN): 0.9312
RMC-6236: RevMed PRISM: AUC (COLO792_SKIN): 0.6729
RMC-6236: RevMed PRISM: AUC (CORL88_LUNG): 0.6508
RMC-6236: RevMed PRISM: AUC (CORL105_LUNG): 0.778
RMC-6236: RevMed PRISM: AUC (CORL279_LUNG, NRAS p.K5R): 0.8133
RMC-6236: RevMed PRISM: AUC (COV318_OVARY): 0.9026
RMC-6236: RevMed PRISM: AUC (COV362_OVARY): 0.7721
RMC-6236: RevMed PRISM: AUC (COV644_OVARY): 0.8618
RMC-6236: RevMed PRISM: AUC (CW9019_SOFT_TISSUE): 0.779
RMC-6236: RevMed PRISM: AUC (DANG_PANCREAS, KRAS p.G12V): 0.3305
RMC-6236: RevMed PRISM: AUC (DAOY_CENTRAL_NERVOUS_SYSTEM): 0.7517
RMC-6236: RevMed PRISM: AUC (DBTRG05MG_CENTRAL_NERVOUS_SYSTEM): 0.8324
RMC-6236: RevMed PRISM: AUC (DKMG_CENTRAL_NERVOUS_SYSTEM): 1
RMC-6236: RevMed PRISM: AUC (DMS79_LUNG): 0.9955
RMC-6236: RevMed PRISM: AUC (DMS273_LUNG): 0.9198
RMC-6236: RevMed PRISM: AUC (DOTC24510_CERVIX): 0.5945
RMC-6236: RevMed PRISM: AUC (DU4475_BREAST): 0.8201
RMC-6236: RevMed PRISM: AUC (ECC2_BILIARY_TRACT): 0.7214
RMC-6236: RevMed PRISM: AUC (ECC10_STOMACH): 0.873
RMC-6236: RevMed PRISM: AUC (EFE184_ENDOMETRIUM): 0.7492
RMC-6236: RevMed PRISM: AUC (EFM19_BREAST): 1
RMC-6236: RevMed PRISM: AUC (EFM192A_BREAST): 0.9985
RMC-6236: RevMed PRISM: AUC (EFO21_OVARY): 0.6746
RMC-6236: RevMed PRISM: AUC (EFO27_OVARY): 0.7784
